# Test results: PubChem BioAssay (NCATS)
# The shares of active, inactive and inconclusive entries below differ from those in the screen. Potencies of inconclusive entries are doubtful fits and often do not repeat. The source made the active and inactive calls. The call rests on the fitted dose curve; in most records, active means well fitted activation curve with a large enough effect; inconclusive means small, poorly fitted or top-dose-only effect; inactive means no such curve, though single readings can be large or run the other way.
# Molecular target: Cellular tumor antigen p53 (Homo sapiens) (UniProt P04637)
# Experiment: Primary qHTS for small molecule compounds that upregulate eGFP-tagged delta133p53alpha (in N-terminal) cells. (AID 2060322); further: nearly all actives have a fitted effect of over 75% in size;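 on activation: series mostly up to about 56 µM; 0% = DMSO vehicle and 100% = reference activator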
# Conditions: NCI-H358 eGFP-delta133p53alpha fluorescence, 24 h; activation: hits give high values
# Method in brief: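 NCI-H358 cells pre-induced 24 h with 10 ng/ml doxycycline to express N-terminal eGFP-delta133p53alpha, then dosed 24 h at 37C without doxycycline; fixed, Hoechst-stained, GFP intensity by laser scanning cytometry, normalized to DMSO (0%) and 57.5 uM 5-azacytidine (100%).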
# Potency means the concentration at half of the fitted maximal effect; tags describe the fitted curve by direction and shape.
# UniProt P04637, sequence (P04637 whole entry, looked up): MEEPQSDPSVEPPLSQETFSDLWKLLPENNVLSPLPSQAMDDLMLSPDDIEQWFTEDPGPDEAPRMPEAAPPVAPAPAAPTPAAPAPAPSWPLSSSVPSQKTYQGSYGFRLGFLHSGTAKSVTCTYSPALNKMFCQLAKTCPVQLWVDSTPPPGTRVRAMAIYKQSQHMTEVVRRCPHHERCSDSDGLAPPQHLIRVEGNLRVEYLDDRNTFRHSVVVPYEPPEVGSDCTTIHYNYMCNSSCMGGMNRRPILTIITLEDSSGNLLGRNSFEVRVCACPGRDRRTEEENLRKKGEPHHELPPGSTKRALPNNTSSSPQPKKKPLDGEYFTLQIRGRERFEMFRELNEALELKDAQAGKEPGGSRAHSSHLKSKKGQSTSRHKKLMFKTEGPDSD
Compound,Potency,activation
C[C@H]1NCc2cc(-c3ccc4c(=O)c(C(=O)O)cn(C5CC5)c4c3OC(F)F)ccc21,"inconclusive: 15.1 µM [activator, single point]",–
C[C@]12CC[C@@H]3c4ccc(O)cc4CC[C@H]3[C@H]1[C@@H](O)[C@@H](O)[C@H]2O,–,inactive: 9.46%
C/C=C/c1ccc(O[C@@H]2O[C@H](CO)[C@@H](O)[C@H](O)[C@H]2O)c(OC)c1,"inconclusive: 2.09 µM [activator, full curve]",–
O=C1C[C@]23C=CCN4CCC5c6cc7c(cc6N1[C@@]5(CC2)C43)OCO7 (some centres undefined),"inconclusive: 26.2 µM [activator, single point]",–
CCN(CC)CCNC(=O)c1c(C)[nH]c(C=C2C(=O)Nc3ccc(F)cc32)c1C,active: 12.5 µM,–
COc1cc2nc(N3CCC(N4CCCCC4)CC3)nc(NC3CCCCCC3)c2cc1OC,"inconclusive: 19 µM [activator, single point]",–
CCCN(CCC)C(=O)C(CCC(=O)OCCCN1CCN(CCOC(=O)Cc2c(C)n(C(=O)c3ccc(Cl)cc3)c3ccc(OC)cc23)CC1)NC(=O)c1ccccc1 (centres undefined),"inconclusive: 37.9 µM [activator, single point]",–
CC(=O)O[C@@H]1c2c3c(cc(O)c2C(=O)O[C@@H]1C)O[C@@]1(C)[C@@H](O)C[C@H]2C(C)(C)C(=O)C=C[C@]2(C)[C@@H]1C3,"inconclusive: 3.7 µM [activator, partial curve, poor fit]",–
C=C(C)C1CCC2(C(=O)O[C@@H]3O[C@H](CO[C@@H]4O[C@H](CO)[C@@H](O)[C@H](O)[C@H]4O)[C@@H](O)[C@H](O[C@@H]4O[C@@H](C)[C@H](O)[C@@H](O)[C@H]4O)[C@H]3O)CCC3(C(=O)O)C(CCC4C5(C)CCC(O)C(C)(C)C5CCC43C)C12 (some centres undefined),–,inactive: -13.7%
